In publication PMC4303303:
Results are given in words; binding and its absence hold for the method and conditions named. For some assays here: Binding seen in cells or lysates may run through a third protein. Some entries that bind do so weakly or less than the wild type. For some assays here: Where a sequence is shown, tags or fusion partners need not be part of it. One block for each substance: values may come before it.

Experiments:
[1] = biological target: GST-hnRNP K (UniProt P61978); test: pull-down; purified GST, GST-SUMO2 or GST-hnRNP K on glutathione magnetic beads as baits; recombinant FLAG-SETDB1 or Ubc9 as prey; 50 mM Tris pH 8.0, 100 mM NaCl, 1.5 h at 4°C; both purified
[2] = biological target: endogenous hnRNP K (293T cells) (human (endogenous in 293T)) (UniProt P61978); test: co-IP; IP of endogenous hnRNP K from 293T whole-cell extracts prepared with 20 mM NEM; IgG as control IP
[3] = biological target: KAP1 (mouse (endogenous in TT2 mESCs)) (UniProt Q62318); test: co-sedimentation; linear 5–50% sucrose gradient ultracentrifugation of mESC nuclear extract prepared with NEM; 27,500 rpm, 4°C, 18.5 h; fractions by western blot
[4] = biological target: KAP1 (mouse (endogenous in TT2 mESCs)) (UniProt Q62318); test: co-IP; endogenous proteins from mESC nuclear extract with 10 mM NEM (SENP inhibitor); IP with anti-SETDB1, anti-KAP1 or anti-hnRNP K overnight at 4°C; also with or without 50 U/ml DNase I and 50 μg/ml RNase A; western blot
[5] = biological target: T1, GST-KAP1^PxVxL (residues 379–524) (UniProt Q13263); test: condition: 0.5–5 μg recombinant prey proteins in 150 μl; pull-down; unmodified GST-tagged wt KAP1, KAP1^PxVxL, KAP1^PB or GST alone as baits; purified 6X-His-tagged hnRNP K as prey; BSA at 1 mg/ml in the binding reaction; washes with 300 mM NaCl; both purified
T1 sequence: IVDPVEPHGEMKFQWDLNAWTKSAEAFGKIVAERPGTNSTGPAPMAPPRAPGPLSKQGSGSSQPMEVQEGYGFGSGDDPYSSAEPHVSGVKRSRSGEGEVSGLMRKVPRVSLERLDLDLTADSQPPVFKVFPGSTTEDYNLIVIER

[6] = biological target: T2, GST-KAP1^PB (residues 624–811) (UniProt Q13263); test: as above
T2 sequence: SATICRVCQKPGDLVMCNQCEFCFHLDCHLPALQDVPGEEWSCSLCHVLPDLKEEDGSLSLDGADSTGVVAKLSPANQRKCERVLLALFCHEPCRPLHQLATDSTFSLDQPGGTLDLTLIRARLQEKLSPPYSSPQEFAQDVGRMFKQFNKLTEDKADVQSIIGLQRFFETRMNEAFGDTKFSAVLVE

[7] = biological target: full-length wt GST-KAP1, unmodified (UniProt Q13263); test: pull-down; SUMOylated or unmodified GST-tagged baits from in vitro SUMOylation reactions on glutathione magnetic beads; purified recombinant 6X-His-tagged hnRNP K as prey; washes with 300 mM NaCl; both purified
[8] = biological target: full-length wt GST-KAP1, unmodified (UniProt Q13263); test: pull-down; unmodified GST-tagged wt KAP1, KAP1^PxVxL, KAP1^PB or GST alone as baits; purified 6X-His-tagged hnRNP K as prey; BSA at 1 mg/ml in the binding reaction; washes with 300 mM NaCl; both purified

binding [1]: binds
Substance: Ubc9 (from UniProt P63279 1-158) (enzyme)

binding [2]: binds
Substance: endogenous KAP1 (293T cells) (from UniProt Q13263 1-835)

binding [3]: binds | binding [4]: binds
Substance: heterogeneous nuclear ribonucleoprotein K (hnRNP K) (from UniProt P61979 1-463)

binding [5]: no binding | binding [6]: no binding | binding [7]: binds | binding [8]: binds
Substance: purified recombinant 6X-His-tagged hnRNP K (from UniProt P61978 1-463)
